Test results taken from PMC4336329 (PLoS ONE, 2015).
Out of some 310,000 compounds screened, about 14,000 (4.5%) showed an effect of 50% or more. The effect is printed as a negative number. The list shows a part of the results.

The molecules below were run against human ether-à-go-go-related gene (hERG) potassium channel (human, UniProt Q12809) (assay: primary screen, population patch clamp on CHO cells stably expressing hERG).
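Further: peak tail current of the secondary pulse compared with the same well before compound.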

Chain of human ether-à-go-go-related gene (hERG) potassium channel (Q12809 whole entry, looked up): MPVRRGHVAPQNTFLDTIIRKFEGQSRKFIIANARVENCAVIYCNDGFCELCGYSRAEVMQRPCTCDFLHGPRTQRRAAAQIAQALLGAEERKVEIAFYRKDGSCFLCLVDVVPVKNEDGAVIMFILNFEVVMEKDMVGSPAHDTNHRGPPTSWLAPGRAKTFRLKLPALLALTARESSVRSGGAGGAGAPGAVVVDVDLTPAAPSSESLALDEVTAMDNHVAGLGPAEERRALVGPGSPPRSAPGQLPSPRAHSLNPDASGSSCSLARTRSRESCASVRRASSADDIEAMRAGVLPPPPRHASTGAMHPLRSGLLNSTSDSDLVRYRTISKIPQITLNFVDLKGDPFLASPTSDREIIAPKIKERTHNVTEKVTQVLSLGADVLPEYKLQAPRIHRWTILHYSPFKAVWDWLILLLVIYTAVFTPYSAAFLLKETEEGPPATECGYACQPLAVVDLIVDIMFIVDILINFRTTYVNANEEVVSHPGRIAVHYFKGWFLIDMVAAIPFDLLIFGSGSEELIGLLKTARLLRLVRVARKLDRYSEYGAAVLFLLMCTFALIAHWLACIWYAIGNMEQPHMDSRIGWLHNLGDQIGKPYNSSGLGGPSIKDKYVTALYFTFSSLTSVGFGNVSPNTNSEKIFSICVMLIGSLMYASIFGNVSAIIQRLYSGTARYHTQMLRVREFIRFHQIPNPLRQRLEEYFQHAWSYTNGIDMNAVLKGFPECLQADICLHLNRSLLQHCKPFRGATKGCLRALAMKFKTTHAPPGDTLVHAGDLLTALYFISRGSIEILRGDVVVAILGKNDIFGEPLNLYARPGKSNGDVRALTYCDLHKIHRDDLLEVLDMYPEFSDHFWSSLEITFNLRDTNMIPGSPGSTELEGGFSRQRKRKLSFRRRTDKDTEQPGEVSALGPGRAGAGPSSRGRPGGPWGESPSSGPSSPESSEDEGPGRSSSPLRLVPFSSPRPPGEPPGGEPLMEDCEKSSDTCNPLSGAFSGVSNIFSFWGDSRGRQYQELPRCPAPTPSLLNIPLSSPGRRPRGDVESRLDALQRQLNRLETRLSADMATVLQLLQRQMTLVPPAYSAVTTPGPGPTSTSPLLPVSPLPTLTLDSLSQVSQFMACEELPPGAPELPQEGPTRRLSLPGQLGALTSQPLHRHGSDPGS

Structure (SMILES)	hERG current change (%, negative = inhibition) at 10uM [%]
O=C(CNC(=O)c1ccc(Cl)cc1)NCC(F)(F)F	4.13
FC(F)(F)c1nnc2sc(-c3cccs3)nn12	-7.24
O=C(c1ccco1)N1CCN(Cc2nc3ccc([N+](=O)[O-])cc3c(=O)n2-c2ccccc2F)CC1	-68.3
CCNC(=O)NC(=O)CSc1nc2ccccc2n1CC(C)C	-4.02
O=C(NCc1ccc2c(c1)OCO2)C1CCC(=O)N1C1CCCCC1 (stereo not drawn)	-9.26
CCOc1ccc2[nH]c(=O)c(=O)[nH]c2c1	-17.2
CCCn1nc(Oc2nc(SC)nc(N(C)C)n2)ccc1=O	-17.7
CN(C)S(=O)(=O)c1cccc(C(=O)Nc2cc3c(cc2C(=O)O)OCCCO3)c1	23.4
Cc1ccc(C(=O)COC(=O)c2c(C)cc(=O)oc2C)cc1[N+](=O)[O-]	-27.3
C=CCNC(=O)c1onc(CSc2cccc(OC)c2)c1C(=O)NCC=C	6.65
O=C(O)CCN1C(=O)C2C3CC(C2C1=O)C1C(c2ccccc2)c2sc(=O)[nH]c2SC31 (stereo not drawn)	13
CC(=O)Nc1ccccc1NS(=O)(=O)c1ccc(Cl)cc1	-2.08
COc1cc(NC(=O)CSc2nccc(C)n2)c(C)cc1[N+](=O)[O-]	-8.03
COc1cccc(-c2ccnc3[nH]n(-c4ccccc4)c(=O)c23)c1	18.5
Cc1ccc(CNC(=O)c2nnc(CS(=O)(=O)c3ccccc3)o2)cc1	-16.4
CN(C)CCCn1c(-c2ccccc2)nc(=S)c2c1CCCC2	12.2
O=C(NCCOC(=O)c1ccc(F)cc1)c1ccc(F)cc1	-8.02
COc1cc(C(=O)NNC(=O)CSc2nnc3ccccn23)cc(OC)c1OC	15.4
O=C(NCc1ccccc1)C12CN(Cc3ccccc3)CC1C(c1cccc([N+](=O)[O-])c1)=NO2 (stereo not drawn)	-14.6
COc1cccc(CNC2CCCc3ccccc32)c1OC (stereo not drawn)	3.4
COc1ccc(C(=O)Nc2ccc3c(c2)OCCO3)cc1S(=O)(=O)N1CCOCC1	6.21
Brc1cnc(N2CCCC2)nc1N1CCOCC1	-15.9
CCOC(=O)c1ccc(N2Cc3ccccc3C2=NC(=O)c2cccc([N+](=O)[O-])c2)cc1	10.7
CCC(C)CCN1C(Nc2ccccc2)=NC[C@@H]1Cc1ccccc1 (stereo partly drawn)	-59.6
